Results are given in words; binding and its absence hold for the method and conditions named. Binding seen in cells or lysates may run through a third protein. Some binding calls cover weakened binding; strength is not graded here. For some assays here: Sequences can lack the tags named with a protein. One block for each molecule: values may come before it.
Columns and labels:
HA-SIRT1 = HA-SIRT1 (UniProt Q96EB6); assay: co-IP; MLTC-1 cells co-transfected with myc-DBC1 and HA-SIRT1 (Supplementary Fig. 13)
[1] = biological target: T1, Sirtuin 1 (endogenous) (mouse (endogenous in C2C12, mouse BAT, MLTC-1)) (UniProt Q923E4); assay: co-IP; IP of SIRT1, western blot for DBC1 and SIRT1, from MLTC-1 cells transfected with siControl or siPerilipin 5 and treated with vehicle or Iso/IBMX for 30 min
T1 sequence: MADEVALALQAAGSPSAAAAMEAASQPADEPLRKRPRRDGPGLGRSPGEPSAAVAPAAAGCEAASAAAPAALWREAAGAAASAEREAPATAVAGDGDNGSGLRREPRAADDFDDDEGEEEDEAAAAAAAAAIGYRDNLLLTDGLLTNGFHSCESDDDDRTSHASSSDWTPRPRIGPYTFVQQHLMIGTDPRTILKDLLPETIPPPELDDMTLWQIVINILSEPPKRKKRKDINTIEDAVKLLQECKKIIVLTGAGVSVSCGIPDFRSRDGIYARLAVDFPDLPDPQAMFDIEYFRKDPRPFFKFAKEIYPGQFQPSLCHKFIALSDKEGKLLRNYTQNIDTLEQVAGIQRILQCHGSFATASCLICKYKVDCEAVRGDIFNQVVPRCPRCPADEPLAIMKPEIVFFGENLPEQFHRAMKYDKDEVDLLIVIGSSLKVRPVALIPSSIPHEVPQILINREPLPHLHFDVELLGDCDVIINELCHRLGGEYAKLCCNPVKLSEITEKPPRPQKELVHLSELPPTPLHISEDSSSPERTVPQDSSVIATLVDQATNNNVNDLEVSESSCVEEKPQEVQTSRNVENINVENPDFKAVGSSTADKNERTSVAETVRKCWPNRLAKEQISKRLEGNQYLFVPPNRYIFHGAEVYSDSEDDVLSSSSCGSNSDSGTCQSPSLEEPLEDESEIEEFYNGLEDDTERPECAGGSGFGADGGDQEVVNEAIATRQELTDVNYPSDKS

The chains behind the UniProt entries cited, without tags or fusion partners. Where a name states a change or a piece, a line headed by the entry shows the natural chain unless it says otherwise.
UniProt Q96EB6: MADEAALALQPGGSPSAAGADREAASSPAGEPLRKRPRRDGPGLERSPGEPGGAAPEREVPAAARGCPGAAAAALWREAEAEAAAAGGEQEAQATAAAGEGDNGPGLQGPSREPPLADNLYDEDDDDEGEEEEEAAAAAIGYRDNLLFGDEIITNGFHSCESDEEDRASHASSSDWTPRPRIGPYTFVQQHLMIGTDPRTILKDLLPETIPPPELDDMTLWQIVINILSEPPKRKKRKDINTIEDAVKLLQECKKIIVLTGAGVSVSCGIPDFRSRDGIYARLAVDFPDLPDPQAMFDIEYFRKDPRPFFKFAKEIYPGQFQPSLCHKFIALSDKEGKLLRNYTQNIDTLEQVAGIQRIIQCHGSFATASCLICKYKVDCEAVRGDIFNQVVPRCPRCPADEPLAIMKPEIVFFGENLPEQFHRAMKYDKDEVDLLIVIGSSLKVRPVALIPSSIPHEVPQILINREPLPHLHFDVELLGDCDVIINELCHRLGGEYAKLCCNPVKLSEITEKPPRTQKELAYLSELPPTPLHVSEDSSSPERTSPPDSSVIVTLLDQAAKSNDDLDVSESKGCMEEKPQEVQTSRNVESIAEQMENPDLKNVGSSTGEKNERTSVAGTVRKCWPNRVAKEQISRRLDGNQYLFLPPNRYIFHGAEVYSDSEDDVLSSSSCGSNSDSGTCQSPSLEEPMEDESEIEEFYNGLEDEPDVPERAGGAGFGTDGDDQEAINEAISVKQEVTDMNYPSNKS
UniProt Q8VDP4: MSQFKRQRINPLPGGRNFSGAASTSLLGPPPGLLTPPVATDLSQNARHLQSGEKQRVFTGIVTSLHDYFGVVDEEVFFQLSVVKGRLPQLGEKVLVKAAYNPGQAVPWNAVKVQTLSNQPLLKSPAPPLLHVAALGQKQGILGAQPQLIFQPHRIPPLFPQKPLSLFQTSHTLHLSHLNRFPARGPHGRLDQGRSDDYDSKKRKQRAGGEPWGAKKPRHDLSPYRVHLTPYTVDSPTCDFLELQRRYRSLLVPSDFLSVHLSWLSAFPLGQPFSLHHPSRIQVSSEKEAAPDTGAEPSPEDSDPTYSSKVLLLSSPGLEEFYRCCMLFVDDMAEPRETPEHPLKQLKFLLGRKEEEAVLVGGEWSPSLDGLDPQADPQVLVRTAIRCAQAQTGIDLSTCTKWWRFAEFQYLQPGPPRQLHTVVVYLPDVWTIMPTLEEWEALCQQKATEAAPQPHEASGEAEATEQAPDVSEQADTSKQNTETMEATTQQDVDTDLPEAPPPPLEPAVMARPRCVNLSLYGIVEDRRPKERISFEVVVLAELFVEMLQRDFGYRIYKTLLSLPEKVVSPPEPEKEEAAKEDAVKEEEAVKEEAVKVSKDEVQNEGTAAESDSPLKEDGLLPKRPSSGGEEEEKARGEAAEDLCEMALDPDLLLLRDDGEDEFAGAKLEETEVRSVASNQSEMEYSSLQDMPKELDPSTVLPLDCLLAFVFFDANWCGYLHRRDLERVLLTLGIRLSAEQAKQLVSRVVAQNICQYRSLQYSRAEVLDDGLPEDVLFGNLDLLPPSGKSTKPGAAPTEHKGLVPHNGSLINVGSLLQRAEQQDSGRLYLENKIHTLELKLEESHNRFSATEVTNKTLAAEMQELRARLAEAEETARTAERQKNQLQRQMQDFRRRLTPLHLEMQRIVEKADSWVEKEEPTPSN
UniProt Q01147: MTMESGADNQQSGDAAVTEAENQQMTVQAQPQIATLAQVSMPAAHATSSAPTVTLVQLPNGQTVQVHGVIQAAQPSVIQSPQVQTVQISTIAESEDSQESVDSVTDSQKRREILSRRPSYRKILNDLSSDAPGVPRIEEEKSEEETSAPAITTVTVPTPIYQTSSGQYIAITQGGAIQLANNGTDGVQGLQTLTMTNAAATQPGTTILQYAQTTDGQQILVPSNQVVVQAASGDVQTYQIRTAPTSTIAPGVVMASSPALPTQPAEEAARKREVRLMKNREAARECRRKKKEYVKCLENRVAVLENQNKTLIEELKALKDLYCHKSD

[2] = biological target: T1, Sirtuin 1 (endogenous) (mouse (endogenous in C2C12, mouse BAT, MLTC-1)); assay: proximity ligation; PLA for endogenous SIRT1-DBC1 complexes in MLTC-1 cells transfected with siRNA duplexes for 48 h, then vehicle or Iso/IBMX for 30 min
[3] = biological target: T2, Perilipin 5 (endogenous) (mouse (endogenous in C2C12, mouse BAT, brown adipocyte line)) (UniProt Q8BVZ1); assay: co-IP; IP of Perilipin 5, western blot for PGC-1α, histone H3, Creb and actin (Supplementary Fig. 11); cells not given
T2 sequence: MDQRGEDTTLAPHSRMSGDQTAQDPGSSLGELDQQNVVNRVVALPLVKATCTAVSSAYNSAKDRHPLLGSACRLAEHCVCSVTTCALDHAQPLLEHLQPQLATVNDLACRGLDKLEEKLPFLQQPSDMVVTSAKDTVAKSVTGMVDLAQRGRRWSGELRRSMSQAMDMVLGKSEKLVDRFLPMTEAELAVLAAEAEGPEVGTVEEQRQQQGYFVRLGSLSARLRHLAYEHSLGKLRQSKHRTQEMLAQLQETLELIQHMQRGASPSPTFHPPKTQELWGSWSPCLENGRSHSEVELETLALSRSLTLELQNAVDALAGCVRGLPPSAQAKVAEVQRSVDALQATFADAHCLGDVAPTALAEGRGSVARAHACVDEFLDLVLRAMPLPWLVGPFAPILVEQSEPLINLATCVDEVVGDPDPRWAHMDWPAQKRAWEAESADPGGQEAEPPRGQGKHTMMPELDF

[4] = biological target: T3, PGC-1α (transfected, Supplementary Fig. 10a) (UniProt O70343); assay: co-IP; cells transfected with wild-type Perilipin 5 or Perilipin 2 and PGC-1α; IP of PGC-1α (Supplementary Fig. 10a)
T3 sequence: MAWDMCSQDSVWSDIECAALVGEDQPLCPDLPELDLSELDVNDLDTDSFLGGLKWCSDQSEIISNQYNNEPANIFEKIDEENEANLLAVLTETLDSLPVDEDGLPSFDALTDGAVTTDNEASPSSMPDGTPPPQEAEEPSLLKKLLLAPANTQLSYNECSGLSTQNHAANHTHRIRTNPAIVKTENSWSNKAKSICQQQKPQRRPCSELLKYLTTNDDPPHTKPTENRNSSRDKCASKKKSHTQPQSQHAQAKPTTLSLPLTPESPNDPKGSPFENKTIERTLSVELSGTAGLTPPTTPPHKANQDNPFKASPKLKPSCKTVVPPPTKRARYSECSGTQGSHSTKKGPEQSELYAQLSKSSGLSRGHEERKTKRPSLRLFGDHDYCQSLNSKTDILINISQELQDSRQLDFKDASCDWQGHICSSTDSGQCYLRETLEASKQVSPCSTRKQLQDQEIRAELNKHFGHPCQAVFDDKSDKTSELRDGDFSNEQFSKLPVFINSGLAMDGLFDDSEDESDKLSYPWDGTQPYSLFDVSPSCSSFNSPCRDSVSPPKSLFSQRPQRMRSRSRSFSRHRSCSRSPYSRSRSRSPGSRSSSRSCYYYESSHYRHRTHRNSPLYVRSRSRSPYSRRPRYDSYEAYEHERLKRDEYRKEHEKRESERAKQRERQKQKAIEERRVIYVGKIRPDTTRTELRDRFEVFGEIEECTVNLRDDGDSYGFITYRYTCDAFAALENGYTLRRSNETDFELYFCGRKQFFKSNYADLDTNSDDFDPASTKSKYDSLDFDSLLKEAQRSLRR

[5] = biological target: T4, myc-Perilipin 5 (transfected in C2C12 myoblasts) (mouse) (UniProt Q8BVZ1); assay: co-IP; whole-cell extract of C2C12 myoblasts transfected with myc-Perilipin 5 and flag-PGC-1α and treated with Iso/IBMX for 2 h; flag and myc antibodies; non-transfected cells as control
T4 sequence: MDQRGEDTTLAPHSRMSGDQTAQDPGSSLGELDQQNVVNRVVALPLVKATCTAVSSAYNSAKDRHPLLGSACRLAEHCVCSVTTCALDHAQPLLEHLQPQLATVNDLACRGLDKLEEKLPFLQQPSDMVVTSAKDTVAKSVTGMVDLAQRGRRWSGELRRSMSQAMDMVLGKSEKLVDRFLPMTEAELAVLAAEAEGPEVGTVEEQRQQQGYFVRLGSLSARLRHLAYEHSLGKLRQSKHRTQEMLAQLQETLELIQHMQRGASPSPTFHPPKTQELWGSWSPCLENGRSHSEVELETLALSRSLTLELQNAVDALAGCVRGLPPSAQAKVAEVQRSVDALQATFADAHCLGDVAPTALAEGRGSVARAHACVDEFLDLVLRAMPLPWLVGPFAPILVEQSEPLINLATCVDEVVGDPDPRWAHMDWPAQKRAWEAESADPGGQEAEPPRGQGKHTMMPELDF

[6] = biological target: T2, Perilipin 5 (endogenous) (mouse (endogenous in C2C12, mouse BAT, brown adipocyte line)); assay: co-IP; IP of Perilipin 5 from intrascapular BAT of wild-type mice treated with CL 316,243 or vehicle
[7] = biological target: T2, Perilipin 5 (endogenous) (mouse (endogenous in C2C12, mouse BAT, brown adipocyte line)); assay: co-IP; nuclear extracts of C2C12 myotubes treated with vehicle or Iso/IBMX for 2 h; IP of PGC-1α or of Perilipin 5; IP buffer 20 mM HEPES pH 7.9, 0.15 M NaCl, 1 mM EDTA, 1 mM EGTA, 1 mM DTT; 4 °C
[8] = biological target: T2, Perilipin 5 (endogenous) (mouse (endogenous in C2C12, mouse BAT, brown adipocyte line)); assay: co-IP; whole-cell lysate of brown adipocytes treated with vehicle or Iso/IBMX for 2 h; IP of Perilipin 5 or of PGC-1α; controls IgG and siRNA for PGC-1α and/or Perilipin 5; also with orlistat or siATGL; lysis in HEPES pH 7.4, 150 mM NaCl, 2 mM EDTA, 1% Triton X-100, 0.5% cholate; 4 °C

Molecule: Deleted in breast cancer 1 (endogenous) (from UniProt Q8VDP4 1-922)
binding [1]: binds
binding [2]: binds

Molecule: Creb (from UniProt Q01147 1-327)
binding [3]: no binding

B4: Perilipin 2 (transfected, Supplementary Fig. 10a) (protein, UniProt P43883 1-425)
chain: MAAAVVDPQQSVVMRVANLPLVSSTYDLVSSAYVSTKDQYPYLRSVCEMAEKGVKTVTSAAMTSALPIIQKLEPQIAVANTYACKGLDRMEERLPILNQPTSEIVASARGAVTGAKDVVTTTMAGAKDSVASTVSGVVDKTKGAVTGSVERTKSVVNGSINTVLGMVQFMNSGVDNAITKSELLVDQYFPLTQEELEMEAKKVEGFDMVQKPSNYERLESLSTKLCSRAYHQALSRVKEAKQKSQETISQLHSTVHLIEFARKNMHSANQKIQGAQDKLYVSWVEWKRSIGYDDTDESHCVEHIESRTLAIARNLTQQLQTTCQTVLVNAQGLPQNIQDQAKHLGVMAGDIYSVFRNAASFKEVSDGVLTSSKGQLQKMKESLDEVMDYFVNNTPLNWLVGPFYPQSTEVNKASLKVQQSEVKAQ
binding [4]: no binding

Other lines, results leading:

binding (HA-SIRT1): binds
Molecule: myc-DBC1 (from UniProt Q8VDP4 1-922)

binding [4]: binds
B1: wild-type Perilipin 5 (transfected, Supplementary Fig. 10a) (protein, UniProt Q8BVZ1 1-463)
chain: MDQRGEDTTLAPHSRMSGDQTAQDPGSSLGELDQQNVVNRVVALPLVKATCTAVSSAYNSAKDRHPLLGSACRLAEHCVCSVTTCALDHAQPLLEHLQPQLATVNDLACRGLDKLEEKLPFLQQPSDMVVTSAKDTVAKSVTGMVDLAQRGRRWSGELRRSMSQAMDMVLGKSEKLVDRFLPMTEAELAVLAAEAEGPEVGTVEEQRQQQGYFVRLGSLSARLRHLAYEHSLGKLRQSKHRTQEMLAQLQETLELIQHMQRGASPSPTFHPPKTQELWGSWSPCLENGRSHSEVELETLALSRSLTLELQNAVDALAGCVRGLPPSAQAKVAEVQRSVDALQATFADAHCLGDVAPTALAEGRGSVARAHACVDEFLDLVLRAMPLPWLVGPFAPILVEQSEPLINLATCVDEVVGDPDPRWAHMDWPAQKRAWEAESADPGGQEAEPPRGQGKHTMMPELDF

binding [5]: binds
B2: flag-PGC-1α (protein, UniProt O70343 1-797)
chain: MAWDMCSQDSVWSDIECAALVGEDQPLCPDLPELDLSELDVNDLDTDSFLGGLKWCSDQSEIISNQYNNEPANIFEKIDEENEANLLAVLTETLDSLPVDEDGLPSFDALTDGAVTTDNEASPSSMPDGTPPPQEAEEPSLLKKLLLAPANTQLSYNECSGLSTQNHAANHTHRIRTNPAIVKTENSWSNKAKSICQQQKPQRRPCSELLKYLTTNDDPPHTKPTENRNSSRDKCASKKKSHTQPQSQHAQAKPTTLSLPLTPESPNDPKGSPFENKTIERTLSVELSGTAGLTPPTTPPHKANQDNPFKASPKLKPSCKTVVPPPTKRARYSECSGTQGSHSTKKGPEQSELYAQLSKSSGLSRGHEERKTKRPSLRLFGDHDYCQSLNSKTDILINISQELQDSRQLDFKDASCDWQGHICSSTDSGQCYLRETLEASKQVSPCSTRKQLQDQEIRAELNKHFGHPCQAVFDDKSDKTSELRDGDFSNEQFSKLPVFINSGLAMDGLFDDSEDESDKLSYPWDGTQPYSLFDVSPSCSSFNSPCRDSVSPPKSLFSQRPQRMRSRSRSFSRHRSCSRSPYSRSRSRSPGSRSSSRSCYYYESSHYRHRTHRNSPLYVRSRSRSPYSRRPRYDSYEAYEHERLKRDEYRKEHEKRESERAKQRERQKQKAIEERRVIYVGKIRPDTTRTELRDRFEVFGEIEECTVNLRDDGDSYGFITYRYTCDAFAALENGYTLRRSNETDFELYFCGRKQFFKSNYADLDTNSDDFDPASTKSKYDSLDFDSLLKEAQRSLRR

binding [6]: binds
binding [3]: binds
binding [7]: binds
binding [8]: binds
B3: Peroxisome proliferator-activated receptor gamma coactivator 1-alpha (endogenous) (protein, UniProt O70343 1-797)
chain: MAWDMCSQDSVWSDIECAALVGEDQPLCPDLPELDLSELDVNDLDTDSFLGGLKWCSDQSEIISNQYNNEPANIFEKIDEENEANLLAVLTETLDSLPVDEDGLPSFDALTDGAVTTDNEASPSSMPDGTPPPQEAEEPSLLKKLLLAPANTQLSYNECSGLSTQNHAANHTHRIRTNPAIVKTENSWSNKAKSICQQQKPQRRPCSELLKYLTTNDDPPHTKPTENRNSSRDKCASKKKSHTQPQSQHAQAKPTTLSLPLTPESPNDPKGSPFENKTIERTLSVELSGTAGLTPPTTPPHKANQDNPFKASPKLKPSCKTVVPPPTKRARYSECSGTQGSHSTKKGPEQSELYAQLSKSSGLSRGHEERKTKRPSLRLFGDHDYCQSLNSKTDILINISQELQDSRQLDFKDASCDWQGHICSSTDSGQCYLRETLEASKQVSPCSTRKQLQDQEIRAELNKHFGHPCQAVFDDKSDKTSELRDGDFSNEQFSKLPVFINSGLAMDGLFDDSEDESDKLSYPWDGTQPYSLFDVSPSCSSFNSPCRDSVSPPKSLFSQRPQRMRSRSRSFSRHRSCSRSPYSRSRSRSPGSRSSSRSCYYYESSHYRHRTHRNSPLYVRSRSRSPYSRRPRYDSYEAYEHERLKRDEYRKEHEKRESERAKQRERQKQKAIEERRVIYVGKIRPDTTRTELRDRFEVFGEIEECTVNLRDDGDSYGFITYRYTCDAFAALENGYTLRRSNETDFELYFCGRKQFFKSNYADLDTNSDDFDPASTKSKYDSLDFDSLLKEAQRSLRR

Source: paper PMC4999519
